According to the supplement of paper PMC6206098:
± gives the uncertainty stated by the source. Shown are siRNA guide strands that differ only in the seed, positions 2 to 7.

Legend:
3LL = assay: cell viability relative to siNT1 control; higher = less toxic; details: concentration: 10 nM; 96 h; Mus musculus;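 also: Luminescence-based viability of cells reverse transfected in 384-well plates with lipid-complexed siRNAs built on a non-toxic 19mer backbone whose passenger strand carries 2′-O-methyl groups at positions 1 and 2, triplicates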
H460 = assay: cell viability relative to lipid-only control; HeyA8 human ovarian and H460 human lung cancer; M565 mouse liver and 3LL mouse lung cancer; siNT1 is a non-toxic control siRNA; higher = less toxic; details: concentration: 10 nM; 96 h; Homo sapiens
HeyA8 = assay: as above; details: concentration: 10 nM; 96 h; Homo sapiens
M565 = assay: as above; details: concentration: 10 nM; 96 h; Mus musculus
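For cell viability relative to lipid-only control in this document: reverse lipid transfection in 384-well plates, in triplicate, of duplexes on a non-toxic 19mer backbone with passenger strand 2′-O-methylated at positions 1 and 2, luminescence viability read-out.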

Sequence | cell viability (3LL) [%] | cell viability (H460) [%] | cell viability (HeyA8) [%] | cell viability (M565) [%]
UGUAUAAACAUGUAAACCAAA | 92.3 ± 9.1 | 74.5 ± 7.6 | 95.9 ± 7.5 | 47.9 ± 1.7
UGUAUACACAUGUAAACCAAA | 93.1 ± 6.4 | 71.7 ± 5.2 | 76.9 ± 9.6 | 75.9 ± 4.2
UGUAUAGACAUGUAAACCAAA | 86.5 ± 1.7 | 70.6 ± 5.4 | 78.6 ± 3.5 | 47 ± 7.4
UGUAUAUACAUGUAAACCAAA | 79.6 ± 8 | 63.8 ± 8.1 | 71.3 ± 6.7 | 62.9 ± 2.6
UGUAUCAACAUGUAAACCAAA | 88.4 ± 5.1 | 85.7 ± 12 | 82.2 ± 10 | 78 ± 19
UGUAUCCACAUGUAAACCAAA | 32.7 ± 13 | 37.6 ± 1.9 | 7.85 ± 1.3 | 21.5 ± 4.2
UGUAUCGACAUGUAAACCAAA | 88.1 ± 5 | 82.8 ± 13 | 82.7 ± 9.5 | 90.7 ± 5
UGUAUCUACAUGUAAACCAAA | 78.8 ± 5.8 | 51.4 ± 2.8 | 15 ± 0.72 | 65.8 ± 17
UGUAUGAACAUGUAAACCAAA | 76.3 ± 7.3 | 70.3 ± 11 | 61.7 ± 12 | 77.9 ± 11
UGUAUGCACAUGUAAACCAAA | 56.9 ± 9.9 | 25.4 ± 1.8 | 10.4 ± 1.2 | 10.5 ± 2.5
UGUAUGGACAUGUAAACCAAA | 33.4 ± 5 | 57.9 ± 7 | 55.2 ± 6.6 | 12.4 ± 2.5
UGUAUGUACAUGUAAACCAAA | 8.25 ± 3.2 | 66.2 ± 11 | 27 ± 2.6 | 21.2 ± 2.7
UGUAUUAACAUGUAAACCAAA | 95.4 ± 8.9 | 91.8 ± 11 | 93.7 ± 6.4 | 77.9 ± 18
UGUAUUCACAUGUAAACCAAA | 56.3 ± 16 | 49.4 ± 4.6 | 9.51 ± 1.8 | 33.3 ± 1.8
UGUAUUGACAUGUAAACCAAA | 90.1 ± 3.5 | 76.7 ± 7.1 | 78.7 ± 14 | 49 ± 13
UGUAUUUACAUGUAAACCAAA | 85.9 ± 2.8 | 69.5 ± 19 | 68.8 ± 5.1 | 74.1 ± 10
UGUCAAAACAUGUAAACCAAA | 89.4 ± 11 | 49.6 ± 6.8 | 95.6 ± 6.9 | 61.5 ± 10
UGUCAACACAUGUAAACCAAA | 31.3 ± 9.6 | 42.4 ± 1.9 | 9.32 ± 0.87 | 9.55 ± 1.9
UGUCAAGACAUGUAAACCAAA | 87 ± 13 | 48.3 ± 8.2 | 90.6 ± 5.6 | 47.8 ± 7
UGUCAAUACAUGUAAACCAAA | 75.1 ± 13 | 64.6 ± 6.6 | 96.6 ± 5 | 29.3 ± 8.6

Sequence | cell viability (3LL) [%] | cell viability (H460) [%] | cell viability (HeyA8) [%] | cell viability (M565) [%]
UGUCACAACAUGUAAACCAAA | 87.1 ± 12 | 20.6 ± 1.4 | 83.2 ± 10 | 44.3 ± 1.7
UGUCACCACAUGUAAACCAAA | 6.54 ± 0.44 | 22.4 ± 0.38 | 15.2 ± 1.9 | 12.5 ± 1.9
UGUCACGACAUGUAAACCAAA | 87.2 ± 15 | 22.3 ± 2.4 | 109 ± 16 | 51 ± 6.8
UGUCACUACAUGUAAACCAAA | 46.6 ± 4.4 | 28.7 ± 8.8 | 54.3 ± 6.7 | 18.5 ± 4
UGUCAGAACAUGUAAACCAAA | 72.4 ± 15 | 49.6 ± 5.2 | 52.7 ± 4.8 | 76.6 ± 5.5
UGUCAGCACAUGUAAACCAAA | 8.02 ± 4.9 | 35.4 ± 6.8 | 31.9 ± 1.5 | 9.42 ± 1.1
UGUCAGGACAUGUAAACCAAA | 15.5 ± 2.3 | 38 ± 2.1 | 76.4 ± 7.9 | 13.6 ± 2.1
UGUCAGUACAUGUAAACCAAA | 34.6 ± 8.7 | 38 ± 3.1 | 57.9 ± 10 | 35 ± 3.8
UGUCAUAACAUGUAAACCAAA | 91.7 ± 9.4 | 29.2 ± 4.8 | 82.6 ± 6.4 | 69.5 ± 16
UGUCAUCACAUGUAAACCAAA | 22.4 ± 5.2 | 31.9 ± 2.7 | 6.3 ± 1 | 6.93 ± 2.8
UGUCAUGACAUGUAAACCAAA | 76.1 ± 17 | 29.4 ± 5 | 79.44 ± 0.2 | 49.1 ± 14
UGUCAUUACAUGUAAACCAAA | 85.3 ± 12 | 30.2 ± 6 | 43.4 ± 1.7 | 21.8 ± 2.8
UGUCCAAACAUGUAAACCAAA | 57.8 ± 10 | 54.1 ± 4.3 | 66.3 ± 2.1 | 23.3 ± 1.1
UGUCCACACAUGUAAACCAAA | 52.1 ± 3.7 | 42.9 ± 4.8 | 7.3 ± 0.36 | 22.3 ± 2.9
UGUCCAGACAUGUAAACCAAA | 65.5 ± 9 | 48.9 ± 14 | 51.4 ± 3.3 | 22.6 ± 3.1
UGUCCAUACAUGUAAACCAAA | 34.1 ± 3.6 | 49.6 ± 6.2 | 54.5 ± 8.3 | 21.1 ± 5.2
UGUCCCAACAUGUAAACCAAA | 30.3 ± 2.7 | 34.9 ± 4.5 | 18.2 ± 1.1 | 3.82 ± 2.4
UGUCCCCACAUGUAAACCAAA | 22.1 ± 1.1 | 35.9 ± 5.9 | 45.5 ± 2.9 | 3.86 ± 0.91
UGUCCCGACAUGUAAACCAAA | 42.9 ± 10 | 44.3 ± 7.1 | 31.5 ± 6.9 | 5.93 ± 2.5
UGUCCCUACAUGUAAACCAAA | 30.3 ± 7.8 | 24.3 ± 1.7 | 22.1 ± 4.5 | 3.17 ± 1.1

Sequence | cell viability (3LL) [%] | cell viability (H460) [%] | cell viability (HeyA8) [%] | cell viability (M565) [%]
UGUCCGAACAUGUAAACCAAA | 64.6 ± 14 | 84.3 ± 19 | 89.4 ± 4 | 39.2 ± 7.4
UGUCCGCACAUGUAAACCAAA | 8.62 ± 3 | 32.8 ± 1.4 | 51.9 ± 3.2 | 5.64 ± 1.3
UGUCCGGACAUGUAAACCAAA | 63.3 ± 11 | 24 ± 2.7 | 46.7 ± 2.1 | 58.9 ± 10
UGUCCGUACAUGUAAACCAAA | 71.1 ± 3.5 | 49.7 ± 9 | 88.3 ± 5.5 | 19.3 ± 2.5
UGUCCUAACAUGUAAACCAAA | 68.8 ± 16 | 75 ± 11 | 87.2 ± 6.8 | 51.5 ± 7.2
UGUCCUCACAUGUAAACCAAA | 7.57 ± 1.6 | 5.74 ± 0.62 | 5.98 ± 0.35 | 13.1 ± 1.1
UGUCCUGACAUGUAAACCAAA | 39.3 ± 9.4 | 73 ± 8.7 | 59.1 ± 6.5 | 11.3 ± 1.3
UGUCCUUACAUGUAAACCAAA | 35 ± 14 | 46.1 ± 2.3 | 52.2 ± 8.8 | 21.2 ± 5.4
UGUCGAAACAUGUAAACCAAA | 94.1 ± 25 | 63.3 ± 3.9 | 98.3 ± 8.2 | 49.7 ± 9.9
UGUCGACACAUGUAAACCAAA | 75.5 ± 13 | 51.9 ± 9.4 | 81.8 ± 42 | 34.3 ± 4.4
UGUCGAGACAUGUAAACCAAA | 89.8 ± 18 | 62.6 ± 8.7 | 85.9 ± 5.7 | 56.9 ± 8.7
UGUCGAUACAUGUAAACCAAA | 62 ± 15 | 66.5 ± 11 | 58.6 ± 1.5 | 42.7 ± 2.9
UGUCGCAACAUGUAAACCAAA | 84.2 ± 18 | 54.4 ± 2.8 | 50.4 ± 4 | 55.1 ± 10
UGUCGCCACAUGUAAACCAAA | 7.35 ± 0.65 | 49.1 ± 1.9 | 22.4 ± 0.75 | 16.4 ± 1.6
UGUCGCGACAUGUAAACCAAA | 88.4 ± 18 | 57.6 ± 4.9 | 81.4 ± 7.9 | 56.47 ± 0.14
UGUCGCUACAUGUAAACCAAA | 37.54 ± 0.19 | 31 ± 6.4 | 32.2 ± 2.5 | 25 ± 2.3
UGUCGGAACAUGUAAACCAAA | 71.3 ± 13 | 82.3 ± 9 | 72.2 ± 4.2 | 40.4 ± 12
UGUCGGCACAUGUAAACCAAA | 49.9 ± 5.9 | 60 ± 4.9 | 32.8 ± 2 | 19.3 ± 2.7
UGUCGGGACAUGUAAACCAAA | 33.4 ± 0.73 | 41.8 ± 6.5 | 24.7 ± 3.9 | 23.8 ± 3.6
